Assay results as given in the supplement of paper PMC10126150.
Values marked as one replicate rest on one cluster of the flow cell; about a third of the high ones do not repeat.

Test system: ATP
Test: switch fluorescence ratio, 500 uM ATP over buffer (Cy3 cluster intensity, sum of 5 cycles each) (fold (ratio)); higher = stronger signal-on switching upon ATP binding; sequences stand for … in TCGTCGGCAGCGTCAGATGTGTATAAGAGACAGTTTTTTTTTTTTTTTTTTTTTTTTT…TC
Settings: aptamer strand: ATP DNA aptamer (quencher-CACCTGGGGGAGTATTGCGGAGGAAGG + anchor), 100 nM annealed; ATP concentration: 500 uM; one replicate
Outline: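 Per cluster, summed Cy3 intensity from the target cycles was divided by that from the buffer cycles to give the fluorescence ratio, then averaged per switch-domain sequence. Clusters outside 100-1000 RFU were excluded. The Cy3-labelled switching-strand clusters, on a modified Illumina MiSeq flow-cell, were annealed to 100 nM quencher-labelled ATP aptamer and imaged in selection buffer, then after 15 min with 500 uM ATP at 22 °C, for five cycles with NaOH stripping and re-annealing between them.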
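Note: ATP exposure 15 min at 22 °C before imaging.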

| Sequence | switch fluorescence ratio |
| --- | --- |
| GGTTAAATGT | 0.974 |
| GGTTACCTCG | 1.02 |
| GGTTAGACCA | 1.06 |
| GGTTAGCTCT | 0.998 |
| GGTTATGTAT | 0.997 |
| GGTTATTCGA | 0.973 |
| GGTTCGCAC | 1.15 |
| GGTTCGCCGA | 1.03 |
| GGTTCTATAA | 0.983 |
| GGTTCTCACT | 0.969 |
| GGTTCTCAT | 1.01 |
| GGTTCTGTG | 0.944 |
| GGTTCTGTGC | 0.998 |
| GGTTGATATC | 1.02 |
| GGTTGCAAGG | 0.975 |
| GGTTGCCATT | 1 |
| GGTTGCTAC | 1.02 |
| GGTTGCTCAA | 1.05 |
| GGTTGGGCTG | 0.972 |
| GGTTGTCCAT | 0.953 |
| GGTTGTGAGA | 0.944 |
| GGTTGTTCAA | 0.947 |
| GGTTGTTCGC | 0.956 |
| GGTTGTTTAA | 0.956 |
| GGTTTAACTA | 0.965 |
| GGTTTCAAA | 1.01 |

| Sequence | switch fluorescence ratio |
| --- | --- |
| GGTTTCAATT | 0.989 |
| GGTTTCACGT | 0.977 |
| GGTTTCAGAC | 1.04 |
| GGTTTCATGC | 1 |
| GGTTTCGCTG | 1.03 |
| GGTTTCGTTA | 0.944 |
| GGTTTGTCGC | 0.98 |
| GGTTTTCCTT | 1.04 |
| GGTTTTCGCC | 1.06 |
| GGTTTTGCAT | 0.969 |
| GTAAAAACAT | 1.03 |
| GTAAAAAGTT | 0.996 |
| GTAAAAATGC | 1.01 |
| GTAAAAGCCG | 0.993 |
| GTAAAATTGA | 0.971 |
| GTAAACCCAA | 1.09 |
| GTAAAGGTTT | 0.952 |
| GTAAAGTACA | 1.18 |
| GTAAATAATG | 1.02 |
| GTAAATTAGG | 1.07 |
| GTAACATGTA | 1.03 |
| GTAACCCGCT | 1.07 |
| GTAACCGGGA | 0.997 |
| GTAACGAGAT | 1.07 |
| GTAAGAGACC | 1.02 |
| GTAAGCGCGT | 0.996 |

| Sequence | switch fluorescence ratio |
| --- | --- |
| GTAAGCTTG | 1.01 |
| GTAAGGACCT | 1.05 |
| GTAAGGCT | 1.03 |
| GTAAGTCTTT | 0.978 |
| GTAATAAGCA | 1.06 |
| GTAATACCTA | 1.07 |
| GTAATATGGA | 1.01 |
| GTAATCGGT | 1.06 |
| GTAATCTGGT | 0.965 |
| GTAATGAT | 0.969 |
| GTAATGGCAG | 1.03 |
| GTAATTTCAA | 1.04 |
| GTACATTAAC | 1.09 |
| GTACCCTCGC | 1.09 |
| GTACCGGCAA | 1.08 |
| GTACGACATA | 1.07 |
| GTACGGATTG | 0.997 |
| GTACGGCG | 0.968 |
| GTACGTAAGC | 1.33 |
| GTACGTTCGT | 1.04 |
| GTACGTTGAG | 0.992 |
| GTACTAATGC | 1.08 |
| GTACTAGATC | 0.974 |
| GTACTATGGC | 0.994 |
| GTACTGAGAA | 1.04 |
| GTACTGCAAT | 1.79 |

| Sequence | switch fluorescence ratio |
| --- | --- |
| GTACTTCGGA | 0.998 |
| GTACTTCTTG | 1.03 |
| GTACTTTAGT | 1.01 |
| GTAGAACTAA | 1.01 |
| GTAGAAGTTA | 0.958 |
| GTAGAATCGT | 0.996 |
| GTAGACTTTG | 1 |
| GTAGAGCATG | 1.02 |
| GTAGAGCGCC | 0.99 |
| GTAGCACGGC | 1.2 |
| GTAGCATTCA | 1.17 |
| GTAGCGTAGG | 0.997 |
| GTAGGAAAGT | 0.985 |
| GTAGGAAATG | 0.997 |
| GTAGGAAGGC | 1.15 |
| GTAGGCGAAA | 1.01 |
| GTAGGCGACT | 0.986 |
| GTAGGGGGG | 1 |
| GTAGGGTGAG | 0.989 |
| GTAGGTCGCA | 0.992 |
| GTAGGTGAGG | 1.01 |
| GTAGGTTGTC | 0.992 |
| GTAGTAACTT | 1.05 |
| GTAGTCCGGG | 0.973 |
| GTAGTGGAGC | 0.971 |
| GTAGTTACTC | 1.13 |

| Sequence | switch fluorescence ratio |
| --- | --- |
| GTAGTTTCAG | 0.955 |
| GTATACCCGT | 1.05 |
| GTATAGCAAC | 1.09 |
| GTATCAGTTC | 1.04 |
| GTATCGGTT | 1.02 |
| GTATCGTATT | 1.02 |
| GTATGAGGGG | 1.03 |
| GTATGCAGTT | 0.981 |
| GTATGCGCGG | 0.957 |
| GTATGGCAGA | 0.987 |
| GTATGGGGAC | 0.963 |
| GTATGTCGCT | 0.999 |
| GTATGTGCGA | 1.02 |
| GTATTACGAC | 1.09 |
| GTATTAGTCG | 1.05 |
| GTATTGCATA | 0.98 |
| GTATTGGGG | 1.02 |
| GTATTGGGGA | 1.01 |
| GTATTTCAGG | 0.983 |
| GTATTTTGTC | 0.992 |
| GTCAAAAAGA | 0.982 |
| GTCAAAAGGA | 1.02 |
| GTCAAACTT | 1 |
| GTCAACATCG | 0.987 |
| GTCAACTAGC | 1.01 |
| GTCAACTCGC | 0.965 |

| Sequence | switch fluorescence ratio |
| --- | --- |
| GTCAATAAT | 1.05 |
| GTCAATGAGC | 1.37 |
| GTCACACTAC | 1.41 |
| GTCACAGGGT | 0.998 |
| GTCACCCTTG | 1.01 |
| GTCAGAACTT | 1.02 |
| GTCAGAAGGG | 0.983 |
| GTCAGAGCAT | 1.03 |
| GTCAGAGCTG | 1.1 |
| GTCAGAGCTT | 1.01 |
| GTCAGATTAT | 0.966 |
| GTCAGATTGC | 0.975 |
| GTCAGCCCTT | 0.965 |
| GTCAGCGCAT | 1.12 |
| GTCAGGGTG | 1.17 |
| GTCAGTGGG | 0.995 |
| GTCATACTAC | 1.07 |
| GTCATCCCTA | 0.996 |
| GTCATGGAAT | 0.98 |
| GTCATGGGCG | 0.985 |
| GTCATTCAGA | 0.985 |
| GTCATTGG | 1.05 |
| GTCCAATCGG | 0.965 |
| GTCCAATTAG | 1.03 |
| GTCCATATGT | 1.03 |
| GTCCCCCCTT | 1.05 |

| Sequence | switch fluorescence ratio |
| --- | --- |
| GTCCCCTTAG | 1.03 |
| GTCCCGACAA | 1 |
| GTCCCGGCTC | 1.03 |
| GTCCCTTTAT | 1.16 |
| GTCCGAACGA | 1.26 |
| GTCCGAGATG | 1.07 |
| GTCCGAGATT | 1.1 |
| GTCCGCGCAT | 3.73 |
| GTCCGGGAGT | 0.992 |
| GTCCGTGGCG | 0.968 |
| GTCCGTGGCT | 0.959 |
| GTCCGTTAAC | 2.01 |
| GTCCTCCTA | 1.16 |
| GTCCTCGAAT | 1.06 |
| GTCCTCTTAT | 0.983 |
| GTCCTTGAAC | 1 |
| GTCGACCTGT | 1.02 |
| GTCGATCGGC | 1.07 |
| GTCGCCGCCG | 1.04 |
| GTCGCCTC | 1.05 |
| GTCGCGAATG | 1.07 |
| GTCGCGCTTT | 0.965 |
| GTCGCGGTCG | 0.997 |
| GTCGCTACAC | 1.35 |
| GTCGCTCTTT | 0.99 |
| GTCGCTGGGC | 1.06 |

| Sequence | switch fluorescence ratio |
| --- | --- |
| GTCGGAGG | 0.996 |
| GTCGGAGTGA | 1.01 |
| GTCGGAGTGT | 0.976 |
| GTCGGGGTGG | 0.986 |
| GTCGGTCGCG | 1.02 |
| GTCGGTGGGA | 1.03 |
| GTCGTACATT | 0.967 |
| GTCGTCACTT | 1.02 |
| GTCGTCTTG | 0.988 |
| GTCTAAGTT | 0.989 |
| GTCTAGCATG | 1 |
| GTCTATAATC | 0.988 |
| GTCTCACGGG | 1.07 |
| GTCTCATGTG | 1.04 |
| GTCTCCGGGG | 0.962 |
| GTCTGACGA | 1.04 |
| GTCTGAGG | 0.986 |
| GTCTGGTCAT | 0.984 |
| GTCTGTGAGT | 0.999 |
